# Data published in the supplement of paper PMC3334620.
# The full ranking holds about 33,000 sequences; the median of “E-score (-0.5 to 0.5)” is about -0.016, and the highest 2% start at about 0.31. Some of the results follow.
# Biological target: Cst6 (UniProt P40535)
# Assay: PBM E-score (8-mer binding enrichment) (E-score (-0.5 to 0.5)); higher = stronger / more preferred TF binding; most listed sequences are background and not binding sites
# Settings: protein concentration: 200 nM; construct: GST-DNA-binding domain
# Summary of the method: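 Full-length yeast transcription factors or their DNA-binding domains, GST-tagged and expressed with PURExpress, were applied at about 100-200 nM to universal all-10-mer Agilent arrays. These arrays had been made double-stranded by primer extension on fresh or once-stripped slides. Detection used fluorescent anti-GST, normalisation used masliner, and E-scores for ungapped eight-base words pooled with reverse complements came from the Universal PBM Analysis Suite.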
row,Sequence,PBM E-score
1,ATTACCCG,0.0968
2,ATGCTTCC,0.021
3,ACACGGCA,0.282
4,CTCCGCTC,-0.0277
5,ACAGGCAG,-0.0376
6,ACACCTGA,0.213
7,GTTAGCGA,0.128
8,AAGGAATC,-0.128
9,AAAGCTTG,-0.0299
10,GGGTTCTA,-0.213
11,AAAAGCCC,-0.137
12,AGTGAGGA,-0.144
13,CTTCTATA,0.0494
14,CATACGAG,-0.0981
15,AATACCCT,-0.138
16,GCGCAGGA,-0.205
17,CCTTACCC,-0.0626
18,GCTTCCAA,-0.0131
19,ACGGATCA,0.135
20,CCGGTATA,-0.15
21,AAATTCTA,0.123
22,GCTTTGCC,-0.177
23,AGCGGCGA,0.0437
24,AGTCAATA,0.0835
25,TTAACTAA,0.277

row,Sequence,PBM E-score
1,AACCTGGG,-0.304
2,GCAAAGTA,0.102
3,TCCCCACA,-0.103
4,AAGGTTGT,0.022
5,CCCGCACA,-0.0728
6,AGTCCCTA,-0.248
7,GGGTCAAA,-0.0725
8,ATGCGCAG,-0.156
9,ATAGGATA,0.0454
10,GTTTCCAA,-0.138
11,CTAACAAC,0.109
12,ACGTATAG,0.189
13,AACTTACC,-0.0221
14,GACTAAAA,0.136
15,CACGGAGA,-0.116
16,AACATGTT,-0.102
17,CGGGCACA,-0.315
18,CTCCAGGA,-0.184
19,GCCGATAA,0.0648
20,CGACCGCC,-0.176
21,TAAAATCA,0.191
22,ACCTCAAT,0.163
23,TAATTGGA,0.0942
24,AAGTTTCG,-0.0165
25,AAGTGATA,0.0557

row,Sequence,PBM E-score
1,AGTACTTG,0.0955
2,CGAATATA,0.0991
3,CGATCAGA,0.101
4,CAAGCCTC,-0.211
5,TTCAGAAA,0.0738
6,AACAGGCC,-0.264
7,ATGTAATG,0.394
8,CCAAACCC,-0.126
9,CGGGGCGC,-0.119
10,ACGGCGGG,0.108
11,GGAGCAAA,-0.114
12,CGGATAAA,0.228
13,CCCGACTA,-0.252
14,TATTGGAA,0.122
15,ACTTTACA,0.13
16,CAGCGCAC,-0.335
17,ATTGCCGG,-0.237
18,AGGCTCGG,-0.303
19,CGCTCTAC,-0.0707
20,AGAAACCG,-0.185
21,GTCTGATA,-0.0451
22,GCAGGGGC,-0.135
23,ATGCGGCA,0.312
24,GATCGCTA,-0.0484
25,GCACTGGA,-0.138

row,Sequence,PBM E-score
1,AAAGTAGA,0.0816
2,CTCGACGA,-0.0908
3,CCTGCTCG,-0.295
4,GCCAATCC,-0.0757
5,CTCAGGGA,-0.36
6,GCAATTTA,0.151
7,AGAGTGCC,-0.178
8,CGGCGGAG,-0.118
9,CTAAGGGC,-0.257
10,TATGATAA,0.251
11,AAACGCAT,-0.13
12,TCGGGAAA,0.00878
13,GTCTAATA,0.122
14,ATAATCAA,0.16
15,ATTTGACA,0.173
16,CCATCCGA,-0.11
17,AATTAAAC,0.205
18,CAAAGTAC,0.0645
19,CACGAATA,0.217
20,AGGCTTAG,-0.144
21,GCAAGGAA,-0.0833
22,ACCCGTAT,-0.0506
23,GCGTCTAC,0.00187
24,AGATTCTA,0.182
25,ATACTACG,0.0975

row,Sequence,PBM E-score
1,CAGCCATC,0.0162
2,AGCGGGCG,-0.179
3,CAGGTCGG,-0.227
4,ACCACTTA,0.0912
5,GCAGGAGA,-0.202
6,CTATCCGC,0.0254
7,GACCCAGC,-0.258
8,CTTATTGA,0.125
9,CGAACCCG,-0.251
10,CAATAGGA,-0.0291
11,ACAAACGC,0.137
12,ACGCCGAA,0.0504
13,CGAAACCA,0.206
14,ACCGATAT,-0.0303
15,CATCAATA,0.244
16,AACATTAC,0.187
17,AACAACAC,0.0919
18,AAGAGACT,-0.192
19,CCATTCGG,-0.0262
20,CTCGGTAA,-0.064
21,AGATATCT,-0.168
22,AGATGGGC,-0.168
23,TAGTAATA,0.236
24,ACTACCAT,0.0297
25,ACTAGGGA,-0.24

row,Sequence,PBM E-score
1,AAGCTTAT,0.115
2,CTGATGCA,0.0731
3,ATGAATCC,0.00709
4,GCATTCCA,-0.149
5,ATGGTGAA,0.142
6,AAAACTAA,0.297
7,CGCGAAAC,0.0509
8,CGTACGTA,0.306
9,AGCGCAGA,-0.176
10,GTTAAGTA,0.178
11,CTCATATA,-0.0189
12,CGCATCCC,-0.216
13,AATATCGA,0.0833
14,CACGGGAG,-0.0594
15,CAGCCGAA,0.0351
16,ACGGGCCT,-0.224
17,CGCCGGTA,-0.145
18,AAACTATT,0.133
19,GATCCGGC,-0.118
20,ATGATAAG,0.171
21,AATAAGGT,0.00713
22,ACAAGCGT,0.0465
23,ATCTAGGA,-0.0727
24,ACCAATTC,-0.0455
25,CGGCTCCA,0.065

row,Sequence,PBM E-score
1,ATTCCGCC,0.0494
2,CAAACAGA,0.0458
3,CCAGTGCG,-0.281
4,CATGTTGC,0.0284
5,ATCTTTAG,0.131
6,CCACTCGG,-0.322
7,TATACGCA,0.177
8,AGTCGCGC,-0.16
9,CCGATGAC,0.336
10,CGTCCTGC,-0.297
11,CGATGACC,0.0541
12,ACAGCGAT,-0.152
13,AGGTCAAT,0.0479
14,GTGCATCA,0.0738
15,AGAGCGTC,-0.0841
16,GGCAGCTA,0.0631
17,AAAGGCGA,0.0536
18,GGCGCTAC,0.0745
19,ACACGGTG,-0.0946
20,CGGATCGA,-0.145
21,CCAACCCA,-0.222
22,ATTCAGGC,-0.0817
